# Test results published in PubChem BioAssay AID1345083 (National Center for Advancing Translational Sciences (NCATS), 2018).
# The campaign covered roughly 94,000 compounds. About 6,200 (6.6%) were called active. The shares of active, inactive and inconclusive entries below differ from those in the screen. The call rests on the fitted dose curve; in most records, active means well fitted inhibition curve with a large enough effect; inconclusive means small, poorly fitted or top-dose-only effect; inactive means flat fitted curve, though single readings scatter. Where the call is inconclusive, the potency comes from a doubtful curve fit.
# Assay: Cytotoxic Profiling in HEK 293 Cell Line of Diverse Libraries Using Quantitative High-Throughput Screening; further: nearly all actives have a fitted effect of over 60% in size
# Conditions: HEK 293 viability, ATP luminescence (CellTiter-Glo), 48-72 h; activity change, negative = cytotoxicity: at 115 µM (top of the series) unless noted; series mostly up to 115 µM
# Summary of the method: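 250 HEK 293 cells/well; compound by pintool; incubated 48 or 72 hr at 37 degree Celsius; CellTiter-Glo added, 10 min RT, luminescence imaged.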
# On the % scale 0 is the no-effect control and ±100 the full control effect; potency means the concentration at half of the fitted maximal effect; tags describe the fitted curve by direction and shape.
SMILES,Potency,"activity change, negative = cytotoxicity",outcome
COc1ccc(-c2ccccc2NC(=O)C2CCCN(Cc3ccc(O)c(OC)c3)C2)cc1 (configuration not stated),"inconclusive: 50.1 µM [inhibitor, partial curve, poor fit]",–,–
CCOc1ccccc1NC(=O)Cn1c(N2CCN(c3ccccc3)CC2)nc(C)cc1=O,–,inactive: -10.8%,–
CSc1ccc(-c2noc(-c3ncn4c3COC(c3ccccc3Cl)C4)n2)cc1 (configuration not stated),"inconclusive: 50.1 µM [inhibitor, partial curve, poor fit]",–,–
Cc1cccc2c1O[C@H]1[C@H](C(N)=O)CN(C(=O)OCc3ccccc3)[C@@H]21,"inconclusive: 56.2 µM [inhibitor, partial curve, poor fit]",–,–
COc1cccc(-c2ccc(C(=O)NCCNC(=O)c3ccc4c(c3)OCO4)cc2)c1,active: 79.4 µM,–,–
Cc1ccc(-c2cc3c(=O)n(CCNC(=O)c4nccc5ccccc45)ccn3n2)c(C)c1,active: 44.7 µM,–,–
Cn1ccnc1C(=O)NCC(=O)N1CCCCCNC(=O)CC1c1ccccc1 (configuration not stated),–,inactive: -15.2%,–
COc1ccc(C(=O)N2CCCC(n3cc(-c4nc(-c5ccccc5)no4)nn3)C2)cc1OC (configuration not stated),"inconclusive: 50.1 µM [inhibitor, partial curve, poor fit]",–,–
COc1ccccc1NC(=O)Cc1cccn1-c1ccc(Cl)cc1,"inconclusive: 50.1 µM [inhibitor, partial curve, poor fit]",–,–
O=C(c1ccccn1)N1CCC2(CNc3ccccc3[S+](=O)([O-])N2)C1 (configuration not stated),"inconclusive: 79.4 µM [inhibitor, single point]",–,–
CC(C)N1C[C@@H](COc2ccc(-c3ccccc3)cc2)[C@H](c2ccccc2)S1(=O)=O,"inconclusive: 31.6 µM [inhibitor, partial curve, poor fit]",–,–
CN1c2cc(C(=O)Nc3ccc(C(F)(F)F)cc3)ccc2C(=O)N2CCCCCC21 (configuration not stated),"inconclusive: 35.5 µM [inhibitor, full curve, poor fit]",–,–
Cc1ccc(C(=O)N2CCN(C(=O)c3cccc(-c4ccccn4)c3)CC2)cc1,"inconclusive: 56.2 µM [inhibitor, partial curve, poor fit]",–,–
O=C(Cc1ccccc1F)Nc1ccc2c(N3CCCCC3)ncnc2c1,"inconclusive: 39.8 µM [inhibitor, full curve, poor fit]",–,–
COc1ccccc1-c1cccc(C(=O)N2CCN([S+](=O)([O-])c3ccccc3)CC2)c1,active: 31.6 µM,–,–
COc1ccc(-c2cc(C(=O)Nc3ccccc3Cl)c3cnn(C)c3n2)cc1,"inconclusive: 39.8 µM [inhibitor, partial curve]",–,–
O=C1CCN(Cc2ccncc2)CCCC(C(=O)N2CCCC2)CCN1 (configuration not stated),–,inactive: -11.1%,–
COc1ccc(C(=O)NCc2nnc3ccc(-c4ccc(F)cc4)nn23)c(OC)c1,–,inactive: -15.9%,–
COCCn1ccc2c(C3=CCOCC3)nc(-c3cccc(NC(C)=O)c3)cc21,"inconclusive: 89.1 µM [inhibitor, partial curve]",–,–
COCc1nc(C2CC(N)C2)cc(N2Cc3nc(C)n(C)c(=O)c3C2)n1 (configuration not stated),"inconclusive: 89.1 µM [inhibitor, partial curve, poor fit]",–,–
N#Cc1cccc(-c2c(C(=O)N3CCCCC3)nc3sccn23)c1,"inconclusive: 112 µM [inhibitor, partial curve, poor fit]",–,–
O=C1CC(NCc2cc(F)ccc2-n2cccn2)CN1Cc1cccc(F)c1 (configuration not stated),–,–,inactive
Cc1nc2cnccn2c1C(=O)NCc1ccc(F)cc1F,–,inactive: 1.4% [at 172 µM],–

SMILES,Potency,"activity change, negative = cytotoxicity",outcome
O=C(CCCc1c[nH]c2ccccc12)N1CCC2(CC1)CC(CCOCC1CC1)CCO2 (configuration not stated),"inconclusive: 44.7 µM [inhibitor, partial curve, poor fit]",–,–
CCc1nc2nccc(-c3ccsc3)n2n1,"inconclusive: 89.1 µM [inhibitor, single point]",–,–
COc1ccc2[nH]cc(CN3CCC([C@H]4[C@@H](OC)C(=O)N4C(C)C)CC3)c2c1,"inconclusive: 89.1 µM [inhibitor, single point]",–,–
O=C(c1cccc(Cl)c1)N1CCC(N(Cc2ccccc2)C2CCOCC2)CC1,"inconclusive: 50.1 µM [inhibitor, partial curve]",–,–
COCCNc1ncccc1-c1noc([C@@H]2CCCN2Cc2ccc3c(c2)OCO3)n1,"inconclusive: 100 µM [inhibitor, partial curve, poor fit]",–,–
COc1ccccc1N1CCN([C@H]2[C@@H]3OC[C@@H](O3)[C@@H](NC(=O)Nc3ccccc3)[C@@H]2O)CC1,–,inactive: -26.6%,–
N#CC1CCN(C(=O)CNC(=O)c2cccc(-c3ccsc3)c2)CC1,"inconclusive: 89.1 µM [inhibitor, single point]",–,–
CC(C)CCC(=O)N1CCCC1C(=O)Nc1ccccc1Oc1cccnc1 (configuration not stated),"inconclusive: 12.6 µM [inhibitor, full curve, poor fit]",–,–
CCc1ccc(CN2CCC(CNC(=O)c3occc3C)CC2)nc1,"inconclusive: 89.1 µM [inhibitor, single point]",–,–
COCCNC(=O)[C@@H]1Cc2cn(Cc3cccnc3)c3cccc(c23)[C@H](CC(C)C)N1,active: 44.7 µM,–,–
C[C@]1(CO)[C@H]2Cc3sc(NC(=O)c4c(F)cccc4F)nc3[C@@H](CC(=O)NCc3ccccc3)[C@]2(C)CC[C@H]1O,"inconclusive: 100 µM [inhibitor, single point]",–,–
COc1ccc(CN2CCN(c3nc4ccccc4o3)CC2CCO)cc1C (configuration not stated),active: 35.5 µM,–,–
Cc1ccc(-c2nnc(C3CN(C(=O)c4cccc(Cl)c4)CC34CCOCC4)o2)cc1 (configuration not stated),"inconclusive: 44.7 µM [inhibitor, partial curve, poor fit]",–,–
CCOC(=O)c1nccn1Cc1nc(-c2ccccc2OCC)oc1C,"inconclusive: 28.2 µM [inhibitor, full curve]",–,–
O=C1CC2CCN([S+](=O)([O-])C3CCCC3)CC2CCN1 (configuration not stated),–,–,inactive
Cc1cc(C(=O)N2CCC3(CC2)Nc2ccccc2NC3=O)c2ccccc2n1,–,inactive: -15.1%,–
O=C(CCC1CCN(Cc2ccc(Cl)s2)CC1)N1CCN(c2ccccc2)CC1,"inconclusive: 79.4 µM [inhibitor, partial curve, poor fit]",–,–
COc1cccc([S+](=O)([O-])N2CCNc3cnc(Nc4cccnc4)nc3C2)c1,"inconclusive: 112 µM [inhibitor, single point]",–,–
CC(Cc1cnccn1)NC(=O)c1csc2nc(-c3cccc(C(F)(F)F)c3)cn12 (configuration not stated),"inconclusive: 35.5 µM [inhibitor, partial curve, poor fit]",–,–
O=C(Nc1nn(-c2cccc(F)c2)c2cccc(N3CCOC3=O)c12)C1CCC1,–,inactive: -9.99%,–
CC1(C(=O)Nc2ccccc2)CCc2cnc(N3CCOCC3)nc21 (configuration not stated),"inconclusive: 89.1 µM [inhibitor, partial curve]",–,–
COc1ccc(C(=O)Nc2ccc(-c3noc([C@@H]4CCCN4Cc4ccccc4C)n3)cn2)cc1,"inconclusive: 14.1 µM [inhibitor, full curve, poor fit]",–,–
COCC(=O)N[C@@H]1CN(Cc2ccccc2OC(C)C)C[C@H]1CO,–,–,inactive

SMILES,Potency,"activity change, negative = cytotoxicity",outcome
COc1ccc(C(=O)N2CCCN(c3cc(-c4ccccc4)[nH]n3)CC2)cc1F,"inconclusive: 50.1 µM [inhibitor, partial curve, poor fit]",–,–
COc1cccc(NC(=O)N2CCN(C(=O)c3cccnc3)[C@@H](C(=O)N[C@H]3CCCNC3=O)C2)c1,–,–,inactive
CN(CC(O)CO)c1ccc(C(=O)N2CCC(Oc3cccnc3)CC2)cn1 (configuration not stated),–,inactive: -1.88%,–
O=C(C1CCCCC1)N1CCC(n2cc(-c3nc(-c4ccccc4)no3)nn2)CC1,–,inactive: -12.4%,–
COc1cc(CCC(=O)NC2CCc3nn(CC4CC4)c(=O)n3CC2)on1 (configuration not stated),–,inactive: -9.93%,–
COc1cccc(-c2noc(-c3ccc(NCCn4cccn4)nc3)n2)c1OC,active: 22.4 µM,–,–
CC(C)C[C@@H]1N[C@H](C(=O)NCc2ccccn2)Cc2cn(Cc3ccncc3)c3cccc1c23,active: 25.1 µM,–,–
O=C(c1cccnc1)N1CC(COc2ccccc2)C2(C1)CN(c1ccccc1)C2 (configuration not stated),"inconclusive: 100 µM [inhibitor, partial curve]",–,–
COCc1nc(C2CCN(C(=O)c3ccoc3)C2)no1 (configuration not stated),–,–,inactive
CC(C)CN1CCN(c2ncncc2-c2nc(-c3ccccc3)no2)CC1,"inconclusive: 50.1 µM [inhibitor, partial curve, poor fit]",–,–
O=C(NCc1cccc(Cl)c1)c1ccc2nnc(-c3ccc(F)cc3)n2c1,"inconclusive: 50.1 µM [inhibitor, partial curve, poor fit]",–,–
O=C(NCc1ccccc1)C1CCCN(C2CCN(C(=O)c3ccoc3)CC2)C1 (configuration not stated),–,inactive: -8.25%,–
c1ccc(N2CCN(Cc3cc(CC4(NCc5cnc6ccccc6c5)COC4)no3)CC2)cc1,"inconclusive: 50.1 µM [inhibitor, partial curve, poor fit]",–,–
COc1ccccc1-c1nc(C(=O)NCc2ccc3c(c2)OCO3)n2ccncc12,"inconclusive: 89.1 µM [inhibitor, single point]",–,–
O=C(NC1CCCCC1)c1nc2sccn2c1-c1cccnc1,–,inactive: -8%,–
CN(CCC1CCOCC1)C(=O)c1cc(COc2ccccc2F)[nH]n1,–,inactive: 11.1%,–
COCCN1C(=O)CSC12CCN(C(=O)Nc1ccccc1C)CC2,–,inactive: -4.81%,–
COc1ccc(-c2ccccc2NC(=O)C2CCCN(Cc3c(O)cccc3OC)C2)cc1 (configuration not stated),active: 20 µM,–,–
CCN(CC)Cc1cnc2c(C(=O)NC3CCCN(C(C)=O)C3)cnn2c1 (configuration not stated),–,–,inactive
O=C(C1CCCN1C(=O)c1cccc(Cl)c1)N1CCC(c2nc3ccncc3[nH]2)CC1 (configuration not stated),–,inactive: -3.96%,–
CN(CC1CCOC1)C(=O)Nc1ccc(Br)cc1 (configuration not stated),–,inactive: -0.332%,–
